Assay results from the RNAGym collection of RNA variant scans (doi:10.1073/pnas.2313332121).
This sample is rich in variants without activity.

B1: TPR 5TU (parent)
chain: GGAUCUUCUCGAUCUAACAAAAAAGACAAAUCUGCCACAAAGCUUGAGAGCAUCUUCGGAUGCAGAGGCGGCAGCCUUCGGUGGCGCGAUAGCGCCAACGUUCUCAACUAUGACACGCAAAACGCGUGCUCCGUUGAAUGGAGUUUAUCAUG

Variants of: B1
Test: polymerase ribozyme fitness, log enrichment relative to wild type (log ratio); higher = more active; in vitro selection for triplet polymerase activity
Method in brief: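 In triplicate, a single round of in vitro selection was run on each mutant library, PCR-built and transcribed, covering one subunit of a heterodimeric triplet polymerase ribozyme. Frozen incubation at −7 °C followed annealing with a biotinylated primer, partner subunit and triplets, and extended constructs were then gel-excised, streptavidin-captured and taken through RT-PCR. Fitness is the logarithm of genotype enrichment over wild-type enrichment, from inverse-variance-weighted replicate averages of Illumina-sequenced inputs and outputs. […] only genotypes with ≥10 input reads and ≥1 read per output were kept.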

Row | Variant | polymerase ribozyme fitness (log ratio)
1 | C96U A115G G136U A142G | -3.69
2 | A97U G140U | -3.87
3 | C93U G133C | -2.76
4 | A89U A91U C116U | ≤ -4.2
5 | A107G U148G | ≤ -4.2
6 | A91G U130G | ≤ -4.2
7 | C93U U101A | -2.19
8 | A89G G92U U151C | ≤ -4.2
9 | A91G C93U | -3.88
10 | G92A C129A A147G | ≤ -4.2
11 | U102G C103G A137G U144C U146G A150G | ≤ -4.2
12 | G94C A97U G136C | -3.35
13 | U101G A107U C114G U144A | ≤ -4.2
14 | A89U G92C G94U G141A | -3.94
15 | A97U U139C G140C U145G | -3.85
16 | G94C A107C C116U C123G | ≤ -4.2
17 | C99G C103A G124U G126A G141C | ≤ -4.2
18 | G92U C99U U144G | 0.0398
19 | C93U U102G | ≤ -4.2
20 | C93U C118U G143C | ≤ -4.2
21 | G94A A107U U148A | ≤ -4.2
22 | C93U G141U | -0.142
23 | A91C C96A A120U A122C G143U | -4.07
24 | A91G C108U | -3.97

Row | Variant | polymerase ribozyme fitness (log ratio)
25 | A91G C108G | ≤ -4.2
26 | G88C C118U | ≤ -4.2
27 | U90G C95G | ≤ -4.2
28 | C95A U101C | 0.62
29 | C96U A137U | -3.84
30 | C96A G143C | -2.38
31 | G94C U145G | -0.944
32 | G88C A89G C96G G140C | ≤ -4.2
33 | A89C C93U G136C | ≤ -4.2
34 | C93G A147U | -1.74
35 | G92C G100C U139A | ≤ -4.2
36 | C95U A98C G133U U139C U144C U151A | ≤ -4.2
37 | C108G C129A G140C U146C | ≤ -4.2
38 | G94A U104C C149U | -1.16
39 | A97C C103G | ≤ -4.2
40 | G94C U134A G140C U146C | ≤ -4.2
41 | C96U C105A | -0.493
42 | A91U A106U G117A G136U | ≤ -4.2
43 | A106C G152U | -2.57
44 | A89G C99G C116A | -1.92
45 | C96G | -0.496
46 | C96A | -0.52
47 | C96U | -0.258
48 | C96U G133A G143U A147G | ≤ -4.2

Row | Variant | polymerase ribozyme fitness (log ratio)
49 | U90C G92U C95U | ≤ -4.2
50 | C96U C131U | 0.576
51 | G100U U144G | -3.5
52 | C93A G100C C118G A138G | ≤ -4.2
53 | A91U C95G C116A G143U A147C | ≤ -4.2
54 | G88A U90A C96U A97U | ≤ -4.2
55 | C99U A150G | -0.552
56 | G88A C125G | ≤ -4.2
57 | C103A A115C | -2.54
58 | C103A A115U | -3.09
59 | C95G G141A A142C C149U | ≤ -4.2
60 | G92U A113U G133A | ≤ -4.2
61 | C93A A110U | -3.99
62 | C99A C116U | -0.602
63 | A91U A97G U104C A122G G126U | ≤ -4.2
64 | C96U G133A | -3.92
65 | C96A G128U | -2.45
66 | A91G U139G | -3.56
67 | G92A G136C | -3.83
68 | A91U A97G | -3.67
69 | C105G A138G | -3.88
70 | G92A C118G | -3.69
71 | C96U A97G G124A C149A | -4.08
72 | G94A C105A | -1.65

Row | Variant | polymerase ribozyme fitness (log ratio)
73 | G100C U104A A106U | ≤ -4.2
74 | G94U C108A A120U C123G | ≤ -4.2
75 | A107G C132U G133U | -3.52
76 | A98G A120G C125A U144A | -1.16
77 | G92C U139A | -4.2
78 | C105G C118A | -3.26
79 | C93A A106G | -1.9
80 | G92U C93A G133U G140A | ≤ -4.2
81 | G92U G133U | -3.41
82 | C108A G143U U144G | ≤ -4.2
83 | C93A C125U | -2.47
84 | G88U C96U G124C G136U | ≤ -4.2
85 | A89G C103A A121G C125G U148A | ≤ -4.2
86 | G92U A97C | -0.00996
87 | U90C A91C G94A U101G G117A A121U G124U | ≤ -4.2
88 | C93A U102C C105G A119C U135G | ≤ -4.2
89 | A91U C108A C114A C129A U146A | ≤ -4.2
90 | G92C C118G C149A | ≤ -4.2
91 | C93G C105A A107G G141U | ≤ -4.2
92 | A98U C129U | 0.463
93 | A89U G92A | ≤ -4.2
94 | G100U C131U | ≤ -4.2
95 | G88C C93G U102C G124A | ≤ -4.2
96 | G88A U109G C125U | ≤ -4.2

Row | Variant | polymerase ribozyme fitness (log ratio)
97 | A91G G92U | -2.31
98 | C96U U134A U135G | ≤ -4.2
99 | C96G U144C | -0.123
100 | A91U C105G | ≤ -4.2
101 | G94U G100U U104G U109C A147C | ≤ -4.2
102 | A97U U139A U144A | -4.08
103 | G92U C118A | -1.05
104 | G88A G92C | ≤ -4.2
105 | C93A U139C | ≤ -4.2
106 | A91U G152U | ≤ -4.2
107 | A91G A98U | -3.95
108 | A91G A120G | -2.98
109 | A91U U145A | -4
110 | C93G G141C | -3.36
111 | G94A U148A | -3.08
112 | G94A U148C | -2.75
113 | U101G U102G C125G C129U U144A | ≤ -4.2
114 | G92A C149U | -3.4
115 | G88U A142U | ≤ -4.2
116 | C96U U144G | -0.238
117 | G94C C108U U130G | ≤ -4.2
118 | U102G U148A | -3.81
119 | G94C A97U A150G | -1.52
120 | C93A C95A C103A U135A | ≤ -4.2

Row | Variant | polymerase ribozyme fitness (log ratio)
121 | C93G U139A | ≤ -4.2
122 | C103G U151A | ≤ -4.2
123 | A98G G124C | -0.819
124 | G94A C108A A115U U146C | ≤ -4.2
125 | U102G A121C | -2.85
126 | A89U A97G U134A G141C | -3.84
127 | G92U C108U U148A | ≤ -4.2
128 | C93U C116U A122U | -1.45
129 | A98U U101G C129U U139C | ≤ -4.2
130 | U101G A106C A113C A122G | ≤ -4.2
131 | C93A U148G G152U | ≤ -4.2
132 | C108G C125U | ≤ -4.2
133 | C93U U104G | -1.8
134 | A89C C99U C114U | -2.63
135 | G92U G94C A106G C123A U145C | -1.97
136 | C96A C118U G133U A147C | ≤ -4.2
137 | C95A C96A C123U G140U | ≤ -4.2
138 | G94C A107U C108A U127G | ≤ -4.2
139 | C96G G112C | -3.95
140 | U101G G136C | -2.44
141 | G94A C116U A122U G136A | -0.164
142 | A89C A150G | -0.921
143 | C93G A142U | -3.03
144 | A91G C131A A137C G143C | ≤ -4.2

Row | Variant | polymerase ribozyme fitness (log ratio)
145 | G92U G124U G141C | -0.283
146 | C93U A98G | -1.59
147 | C99G A107U A137G G141A | ≤ -4.2
148 | C93U U148A | -3.85
149 | A97U U109G | -1.62
150 | C95U C131G | -3.24
151 | C93U G141A U146G | -3.48
152 | A91G A106G | -1.93
153 | A91U C99G | ≤ -4.2
154 | G94A A97U | -1
155 | C93U A142C | -0.842
156 | C93U A107G G117A G140U | ≤ -4.2
157 | U90G G92A A106C C118U | ≤ -4.2
158 | C93U A119G G143U U145G | -3.92
159 | C93G A98U C105G C116A A142G | ≤ -4.2
160 | A106G C125A | -0.665
161 | U102G G126A U134C U135G U145G | ≤ -4.2
162 | C95U C123A C125U | -0.165
163 | C93A G126A A137G | -2.09
164 | G88C C93G C114U | ≤ -4.2
165 | G94C U111C U135A A138U | ≤ -4.2
166 | C93U A97C G140A | ≤ -4.2
167 | C93A A98G | -1.81
